This is an account of results in article PMC11995724, “Antibiotic target discovery by integrated phenotypic and activity-based profiling of electrophilic fragments” (Cell chemical biology, 2025).

About 110 (3.4%) of roughly 3,200 compounds showed an effect of 50% or more. The list shows a part of the results.

The subject of the assay is T1, V. cholerae SAD30.
T1 construct: SAD30
More on the design: species or system S. aureus MSSA476 (TSB) or V. cholerae SAD30 (LB); 384-well bacterial growth screen at 25 uM, OD600 relative to DMSO control. To be noted: relative growth, OD600, LB; 25 µM; inhibitor.
For the compound `Cc1ccc(NC(=O)CCl)c([N+](=O)[O-])c1` [4-A07, 2-chloro-N-(4-methyl-2-nitrophenyl)acetamide], the “% of control remaining” value was 105.068%.

Regarding `O=C(CCl)N1c2ccccc2SCC1c1ccccc1` (stereo not shown) [4-M18, 2-chloro-1-(3-phenyl-3,4-dihydro-2H-1,4-benzothiazin-4-yl)ethan-1-one], the “% of control remaining” value was 106.966%.

Regarding `C=CC(=O)NC1Cc2ccccc2C1=O` (stereo not shown) [1-H21, N-(1-oxo-2,3-dihydro-1H-inden-2-yl)prop-2-enamide], the “% of control remaining” value is reported as 95.0673%.

Regarding `C=CC(=O)NC1CCN(c2nc(C3CC3)cc(C(F)(F)F)n2)CC1` [1-L03, N-{1-[4-cyclopropyl-6-(trifluoromethyl)pyrimidin-2-yl]piperidin-4-yl}prop-2-enamide], the “% of control remaining” value is recorded as 94.1704%.

For the compound `C=CC(=O)N1CCC(NC(C)=O)C1` (stereo not shown) [1-B19, N-[1-(prop-2-enoyl)pyrrolidin-3-yl]acetamide], the “% of control remaining” value is recorded as 89.3871%.

As for `C=CC(=O)NCC1(c2ccnn2C)CC1` [2-P15, N-{[1-(1-methyl-1H-pyrazol-5-yl)cyclopropyl]methyl}prop-2-enamide], the “% of control remaining” value is 94.9821%.

On to `C=CC(=O)NCC(C)(C)c1coc(-c2ccccc2)n1` [3-A03, N-[2-methyl-2-(2-phenyl-1,3-oxazol-4-yl)propyl]prop-2-enamide], for which the “% of control remaining” value turned out to be 116.791%.

For `Cc1c(NC(=O)C(C)Cl)c(=O)n(-c2ccccc2)n1C` (stereo not shown) [6-E06, 2-chloro-N-(1,5-dimethyl-3-oxo-2-phenyl-2,3-dihydro-1H-pyrazol-4-yl)propanamide], the “% of control remaining” value turned out to be 89.9422%.

With `N#CC(=Cc1ccc(N2CCCC2)cc1)C(=O)N1CCC(C(N)=O)CC1` [9-K12, 1-(2-cyano-2-{[4-(pyrrolidin-1-yl)phenyl]methylidene}acetyl)piperidine-4-carboxamide], the “% of control remaining” value was 76.4786%.

Take `C=CC(=O)NCc1ccc(C(=O)N2CCCC(c3nnc[nH]3)C2)cc1` (stereo not shown) [3-E19, N-({4-[3-(4H-1,2,4-triazol-3-yl)piperidine-1-carbonyl]phenyl}methyl)prop-2-enamide]: the “% of control remaining” value is on record as 95.2656%.

As for `O=C(CCl)Cc1ccc(F)cc1F` [10-G17, 1-chloro-3-(2,4-difluorophenyl)propan-2-one], the “% of control remaining” value came out at 31.4826%.

Regarding `C=CC(=O)Nc1cc2c(cc1Sc1ccccc1)OCCO2` [1-M13, N-[7-(phenylsulfanyl)-2,3-dihydro-1,4-benzodioxin-6-yl]prop-2-enamide], the “% of control remaining” value came out at 69.8057%.

In the case of `CC(=O)Nc1cccc(N2C(=O)C=CC2=O)c1` [10-D09, N-[3-(2,5-dioxo-2,5-dihydro-1H-pyrrol-1-yl)phenyl]acetamide], the “% of control remaining” value was 85.564%.

Regarding `CC(Cl)C(=O)NCCS(=O)(=O)Nc1ccccn1` (stereo not shown) [7-L05, 2-chloro-N-{2-[(pyridin-2-yl)sulfamoyl]ethyl}propanamide], the “% of control remaining” value is 83.7932%.

For `C=CC(=O)NCc1ccc(S(=O)(=O)NC2CC2)cc1` [2-P19, N-{[4-(cyclopropylsulfamoyl)phenyl]methyl}prop-2-enamide], the “% of control remaining” value was 96.8349%.

Regarding `O=C(CCl)NCCCC1CCCCC1` [6-O05, 2-chloro-N-(3-cyclohexylpropyl)acetamide], the “% of control remaining” value is reported as 100.256%.

In the case of `CN(C)c1ccc(C=C(C#N)C(=O)N2CCC2)cc1` [9-A14, 2-(azetidine-1-carbonyl)-3-[4-(dimethylamino)phenyl]prop-2-enenitrile], the “% of control remaining” value turned out to be 80.5574%.

As for `O=C(CCl)NC1CN(S(=O)(=O)c2ccc3c(c2)OCCO3)C1` [5-I16, 2-chloro-N-[1-(2,3-dihydro-1,4-benzodioxine-6-sulfonyl)azetidin-3-yl]acetamide], the “% of control remaining” value is reported as 98.6866%.

For `Cc1ccc(C=C(C#N)C(=O)Nc2ccc(C(=O)O)cc2)s1` [8-E04, 4-[2-cyano-3-(5-methylthiophen-2-yl)prop-2-enamido]benzoic acid], the “% of control remaining” value is 80.8294%.

With `N#CCCN(Cc1ccco1)C(=O)CCl` [5-D20, 2-chloro-N-(2-cyanoethyl)-N-[(furan-2-yl)methyl]acetamide], the “% of control remaining” value was 100.368%.

With `C=CC(=O)N1CCC(C(=O)Nc2c[nH]c(=O)c(C)c2)CC1` [3-J05, N-(5-methyl-6-oxo-1,6-dihydropyridin-3-yl)-1-(prop-2-enoyl)piperidine-4-carboxamide], the “% of control remaining” value turned out to be 96.6771%.

With `C=CC(=O)NC1CCCN(C2CCCCC2)C1=O` (stereo not shown) [3-O18, N-(1-cyclohexyl-2-oxopiperidin-3-yl)prop-2-enamide], the “% of control remaining” value turned out to be 105.499%.

Consider `N#CC(=Cc1cccnc1)C(=O)NCCc1ccccc1` [9-K14, 2-cyano-N-(2-phenylethyl)-3-(pyridin-3-yl)prop-2-enamide], for which the “% of control remaining” value was 86.6757%.

As to `C=CC(=O)Nc1cn(CCC)cn1` [3-B10, N-(1-propyl-1H-imidazol-4-yl)prop-2-enamide], the “% of control remaining” value amounted to 108.146%.

In the case of `CN1C(=CC=C(C#N)C(=O)NCC2CCCO2)C(C)(C)c2ccccc21` (stereo not shown) [8-M04, 2-cyano-N-[(oxolan-2-yl)methyl]-4-(1,3,3-trimethyl-2,3-dihydro-1H-indol-2-ylidene)but-2-enamide], the “% of control remaining” value is 70.6322%.

Consider `O=C(CCl)Nc1ccc(F)c(F)c1F` [4-M05, 2-chloro-N-(2,3,4-trifluorophenyl)acetamide], for which the “% of control remaining” value is 104.033%.

`C=CC(=O)NC1CCn2cccc2C1` (stereo not shown) [3-N11, N-(5,6,7,8-tetrahydroindolizin-7-yl)prop-2-enamide]: the “% of control remaining” value turned out to be 100.382%.

For the compound `C=CC(=O)N1CC[C@H](NS(C)(=O)=O)C1` [2-H21, N-[(3S)-1-(prop-2-enoyl)pyrrolidin-3-yl]methanesulfonamide], the “% of control remaining” value amounted to 102.239%.

Turning to `N#CC(=CC(Cl)=Cc1ccccc1)C(=O)NC1CCCCC1` [8-D17, 4-chloro-2-cyano-N-cyclohexyl-5-phenylpenta-2,4-dienamide], the “% of control remaining” value was 72.6717%.

Regarding `CC(Cl)C(=O)N(C)C1CCN(c2ccccn2)CC1` (stereo not shown) [6-J20, 2-chloro-N-methyl-N-[1-(pyridin-2-yl)piperidin-4-yl]propanamide], the “% of control remaining” value came out at 92.5206%.

For the compound `C=CC(=O)N(Cc1cc(Cl)ccc1OC)C1CCCOCC1` (stereo not shown) [2-C07, N-[(5-chloro-2-methoxyphenyl)methyl]-N-(oxepan-4-yl)prop-2-enamide], the “% of control remaining” value is listed as 87.2624%.

For `Cc1cc(C)c(NC(=O)C(C)Cl)c(C)c1` (stereo not shown) [5-K15, 2-chloro-N-(2,4,6-trimethylphenyl)propanamide], the “% of control remaining” value is on record as 88.095%.

Consider `Cc1ccc(C2CC(c3cccs3)=NN2C(=O)CCl)cc1` (stereo not shown) [4-I22, 2-chloro-1-[5-(4-methylphenyl)-3-(thiophen-2-yl)-4,5-dihydro-1H-pyrazol-1-yl]ethan-1-one], for which the “% of control remaining” value was 122.838%.

Take `C=CC(=O)NC1CCN(Cc2ccc(Cl)cc2)CC1` [1-N08, N-{1-[(4-chlorophenyl)methyl]piperidin-4-yl}prop-2-enamide]: the “% of control remaining” value came to 104.024%.

With `C=CC(=O)NC(C)C(c1ccccc1Cl)n1cccn1` (stereo not shown) [2-J05, N-[1-(2-chlorophenyl)-1-(1H-pyrazol-1-yl)propan-2-yl]prop-2-enamide], the “% of control remaining” value came out at 86.7992%.

Take `N#CC(=Cc1csc(COc2ccccc2)n1)C(N)=O` [9-B12, 2-cyano-3-[2-(phenoxymethyl)-1,3-thiazol-4-yl]prop-2-enamide]: the “% of control remaining” value is 84.9082%.

As for `CC(Cl)C(=O)NCc1ccccc1S(=O)(=O)N1CCOCC1` (stereo not shown) [7-K15, 2-chloro-N-{[2-(morpholine-4-sulfonyl)phenyl]methyl}propanamide], the “% of control remaining” value is 78.11%.

Turning to `CN(C)c1ccc(C=C(C#N)C(=O)Nc2nccs2)cc1` [8-E06, 2-cyano-3-[4-(dimethylamino)phenyl]-N-(1,3-thiazol-2-yl)prop-2-enamide], the “% of control remaining” value is reported as 77.9742%.

Take `CC(Cl)C(=O)N1CCN(CCOc2ccc3c(c2)CCC3)CC1` (stereo not shown) [6-H17, 2-chloro-1-{4-[2-(2,3-dihydro-1H-inden-5-yloxy)ethyl]piperazin-1-yl}propan-1-one]: the “% of control remaining” value is on record as 64.6128%.

Turning to `C=CC(=O)NCc1csc(C(C)(C)C)n1` [2-C09, N-[(2-tert-butyl-1,3-thiazol-4-yl)methyl]prop-2-enamide], the “% of control remaining” value is on record as 91.5854%.

In the case of `CCOc1ccc(N2C(=O)C=CC2=O)cc1` [10-A14, 1-(4-ethoxyphenyl)-2,5-dihydro-1H-pyrrole-2,5-dione], the “% of control remaining” value was determined as 23.3781%.

As for `CC1(C)CN(C(=O)CCl)CCO1` [6-C05, 2-chloro-1-(2,2-dimethylmorpholin-4-yl)ethan-1-one], the “% of control remaining” value is given as 95.0991%.

With `C=CC(=O)NCCC(=O)N1CCC(c2ncccn2)CC1` [3-M17, N-{3-oxo-3-[4-(pyrimidin-2-yl)piperidin-1-yl]propyl}prop-2-enamide], the “% of control remaining” value is on record as 97.03%.

With `CCN(c1ccc(NC(=O)CCl)cc1)C(C)C.Cl` [5-J08, 2-chloro-N-{4-[ethyl(propan-2-yl)amino]phenyl}acetamide hydrochloride], the “% of control remaining” value was found to be 95.4923%.

Take `N#CC(C(=O)CCl)=C1NC(C23CC4CC(CC(C4)C2)C3)=CS1` [10-F14, 2-[4-(adamantan-1-yl)-2,3-dihydro-1,3-thiazol-2-ylidene]-4-chloro-3-oxobutanenitrile]: the “% of control remaining” value was determined as 68.7317%.

On to `Cc1noc(CC(NC(=O)CCl)c2ccccc2)n1` (stereo not shown) [5-E04, 2-chloro-N-[2-(3-methyl-1,2,4-oxadiazol-5-yl)-1-phenylethyl]acetamide], for which the “% of control remaining” value was found to be 98.8547%.
